The supplement of paper PMC12217912
The other results are listed elsewhere or left out. Sequences were assembled here from the parent chain. Values near 0.05 are background.

B1: TEV protease; numbered along this chain (parent)
chain: MGESLFKGPRDYNPISSSICHLTNESDGHTTSLYGIGFGPFIITNKHLFRRNNGTLVVQSLHGVFKVKDTTTLQQHLVDGRDMIIIRMPKDFPPFPQKLKFREPQREERICLVTTNFQTKSMSSMVSDTSCTFPSGDGIFWKHWIQTKDGQCGSPLVSTRDGFIVGIHSASNFTNTNNYFTSVPKNFMELLTNQEAQQWVSGWRLNADSVLWGGHKVFMVKPEEPFQPVKEATQL

Variants of: B1
Experiment: raw area under fraction-flipped curve 0-4 h after induction (AUC4h, not background-subtracted), DNA-recorder readout of cleavage of the substrate (dimensionless); higher = more cleavage of the substrate by the protease variant
Conditions: temperature: 34 °C; time window: 0-4 h after rhamnose induction
Description: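 In vivo DNA recorder in E. coli TOP10(DE3) ΔrhaA at 34 °C. Each TEVp single-site mutant (parent TEVp 0) is paired with a single-site variant of the 7-mer TEVs (canonical ENLYFQ|S). The substrate sits between flexible linkers in a Bxb1-sfGFP-TEVs-SsrA fusion, so cleavage stabilises Bxb1 and speeds flipping of a recombination array, read by NGS. The value is the raw area under the fraction-flipped curve over 0-4 h after rhamnose induction (AUC4h), with ≥20 reads per time point. It is not background-subtracted; inactive controls average about 0.047.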
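Note: Bxb1 expression induced with 0.2% (w/v) L-rhamnose at OD600 near 0.5, cultures sampled hourly, flipped fraction per protease–substrate barcode pair counted by paired-end Illumina sequencing.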

Variant	area with substrate ENLYFQA	area with substrate ENLYFQC	area with substrate ENLYFQD	area with substrate ENLYFQG	area with substrate ENLYFQH	area with substrate ENLYFQI	area with substrate ENLYFQK	area with substrate ENLYFQL	area with substrate ENLYFQM	area with substrate ENLYFQN	area with substrate ENLYFQP	area with substrate ENLYFQQ	area with substrate ENLYFQR	area with substrate ENLYFQS	area with substrate ENLYFQT	area with substrate ENLYFQV	area with substrate ENLYFQW	area with substrate ENLYFQY	area with substrate ENLYFQF	area with substrate ENLYFQE
P14S	0.094	0.0987	0.0766	0.0914	0.0791	0.0549	0.0642	0.0803	0.089	0.0784	0.0622	0.0801	0.0607	0.0981	0.058	0.0455	0.0648	0.0896		
S26A	0.0917	0.117	0.0675	0.0801	0.0651	0.0564	0.0751	0.0657	0.0746	0.0739	0.0391	0.0638	0.0234	0.0941	0.067	0.0659	0.0685	0.068	0.0732	
S26G	0.0952	0.147	0.0853	0.0938										0.0945		0.0522	0.0605	0.0956		
S26T	0.137	0.0951		0.0785	0.0863	0.0627	0.0063	0.0638		0.0532			0.0643	0.0916	0.0676		0.0612			
I19F	0.0625	0.0748	0.0865	0.0733	0.0889	0.0629	0.0619	0.0564			0.0579		0.0566	0.0696	0.0572	0.0551	0.0609	0.0659	0.0662	
I19E	0.0522		0.0434	0.0448		0.0481	0.0454	0.0428	0.0494		0.0481		0.04	0.0548	0.0425		0.0514	0.0558		
I19L	0.128	0.14	0.0652	0.0906		0.0594	0.0816	0.0556	0.115	0.0919	0.0647	0.0839	0.0597	0.117	0.0795	0.0666		0.0851	0.0854	
D27T	0.0557				0.0754	0.0508	0.0598	0.0637						0.0852	0.0663		0.0668			
G2E	0.0889	0.121				0.0649	0.0699	0.0657				0.0512	0.0726	0.0972		0.0499				0.0688
K7Q	0.098	0.112		0.0857				0.0653	0.104	0.0771	0.0592		0.0463	0.0994	0.0676	0.0707	0.0686		0.0762	
T30K	0.0913	0.111		0.101	0.0615	0.0618	0.0584	0.0494	0.0761	0.0842	0.0402		0.0557	0.0963	0.0658		0.0644	0.096	0.0834	0.042
T30G	0.0811	0.109		0.15		0.0336	0.0871	0.0561	0.0882	0.0573			0.0528	0.0993	0.0623	0.0495	0.0594	0.064	0.0628	
R10N	0.0868	0.103			0.0692	0.0553		0.0567	0.0622	0.0772	0.0294		0.0625	0.0856	0.0384			0.0743		
